Assay results: the supplement of paper PMC3334620
In all, about 33,000 sequences were measured (“E-score (-0.5 to 0.5)”: median about -0.032, highest 2% from about 0.36 on). This is one part of the list.

Target: T1, Sko1 (UniProt Q02100)
T1 sequence: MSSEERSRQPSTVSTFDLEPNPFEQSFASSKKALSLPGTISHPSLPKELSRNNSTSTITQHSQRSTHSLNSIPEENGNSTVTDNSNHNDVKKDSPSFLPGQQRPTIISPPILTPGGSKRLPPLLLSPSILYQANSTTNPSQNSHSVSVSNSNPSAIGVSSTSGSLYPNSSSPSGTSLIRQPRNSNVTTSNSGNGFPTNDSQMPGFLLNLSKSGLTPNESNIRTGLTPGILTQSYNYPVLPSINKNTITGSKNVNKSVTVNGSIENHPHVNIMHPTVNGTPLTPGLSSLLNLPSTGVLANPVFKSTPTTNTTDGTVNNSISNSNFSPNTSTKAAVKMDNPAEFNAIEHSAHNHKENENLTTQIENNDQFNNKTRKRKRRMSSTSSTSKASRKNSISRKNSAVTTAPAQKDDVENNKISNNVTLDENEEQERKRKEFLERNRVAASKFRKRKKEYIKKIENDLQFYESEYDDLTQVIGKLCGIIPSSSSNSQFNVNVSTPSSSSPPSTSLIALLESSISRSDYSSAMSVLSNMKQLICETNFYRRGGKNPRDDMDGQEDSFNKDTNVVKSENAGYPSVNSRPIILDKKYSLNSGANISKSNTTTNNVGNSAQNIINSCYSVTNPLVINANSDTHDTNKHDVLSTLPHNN
Assay: PBM E-score (8-mer binding enrichment) (E-score (-0.5 to 0.5)); higher = stronger / more preferred TF binding; most listed sequences are background and not binding sites
Conditions: protein concentration: 200 nM; construct: GST-full length
Method in brief: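 Using PURExpress in vitro transcription/translation, GST-tagged yeast transcription factors were made in full-length or DNA-binding-domain form. These were applied at about 100-200 nM to double-stranded universal all-10-mer Agilent arrays, and bound protein was detected with fluorescent anti-GST. Scans were normalised with masliner before the Universal PBM Analysis Suite assigned E-scores to ungapped eight-base words pooled with their reverse complements.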

Row | Sequence | PBM E-score
1 | CAATGGGA | -0.177
2 | CGCCTAGA | -0.122
3 | CATAGGCA | -0.0947
4 | GGGAAGTA | -0.132
5 | TCCCCGAA | -0.293
6 | GGTCCTAA | -0.00481
7 | ACGACTCA | 0.0692
8 | CAATCGCA | 0.0114
9 | CCGCTGTA | -0.226
10 | CGCCCACG | -0.0731
11 | GACGCATC | 0.184
12 | GTCACTTA | 0.286
13 | ATGGGCCG | -0.279
14 | TTAATTAA | 0.0598
15 | AAGATTAT | 0.0805
16 | AATTTAGA | 0.202
17 | GATTATTA | 0.149
18 | CCGGGTCC | -0.333
19 | TAATACAA | 0.181
20 | GTTGCAGA | -0.0108
21 | TTCTACAA | 0.063
22 | TCCCTTAA | -0.0451
23 | TAGGTATA | 0.105
24 | GAATGGAC | 0.0685
25 | CCGTATTA | 0.152

Row | Sequence | PBM E-score
26 | AAATATGC | -0.00723
27 | AAATCCCA | -0.0596
28 | CCAACCGC | -0.0986
29 | TCCGCCCA | -0.168
30 | GGTGGCTA | -0.152
31 | TCAAGTAA | 0.197
32 | CTTAAATC | 0.158
33 | GCGTTCAA | 0.0896
34 | ATAAGCCG | -0.187
35 | CTCGTTCA | -0.0308
36 | CCTAAAAA | 0.0683
37 | TGGCAAAA | 0.0855
38 | CCAGTTAC | -0.151
39 | ATCCCAGG | -0.305
40 | ACGAAGTG | 0.171
41 | ATTTGTGG | 0.0449
42 | ACAATTAT | 0.245
43 | ACCAGACT | -0.143
44 | ATCAACTG | -0.0317
45 | ACAGCCTA | -0.0248
46 | GCCGTTAA | -0.111
47 | AAGAGGTC | -0.144
48 | CTTTGCAC | 0.0348
49 | ACATAGCG | 0.0139
50 | GCATCCTA | -0.0847

Row | Sequence | PBM E-score
51 | CAGGAGAC | -0.0473
52 | CCCCTATC | -0.218
53 | GAAGAGCC | -0.252
54 | AGTCCGTA | -0.218
55 | ATATAGTG | 0.099
56 | ACCGCACG | 0.0615
57 | ACTCGCAC | -0.0948
58 | AATGTTCC | 0.0293
59 | CCCGTCGG | -0.0853
60 | CAATTGCG | 0.237
61 | GTTCACTA | -0.0269
62 | GCCCCAAC | -0.0431
63 | AGGTCATC | 0.22
64 | AAAGGTTC | -0.115
65 | TCAGTGCA | -0.0968
66 | CTTGGTCC | -0.236
67 | CACAACAG | -0.188
68 | AGAATACG | 0.304
69 | AAGGGAAG | 0.0269
70 | CAGCAGGA | -0.147
71 | AACCGGGA | -0.219
72 | GAACACAC | -0.0651
73 | CAATGGTC | -0.176
74 | CAAATCCG | -0.027
75 | AAGGTGTA | 0.105

Row | Sequence | PBM E-score
76 | CACTGCCA | -0.0172
77 | GCGACTAC | -0.14
78 | ACAACTCC | -0.135
79 | ACTGGCTG | -0.184
80 | AAAGCATT | 0.103
81 | CCATGCAA | 0.0552
82 | GGGGGACC | -0.319
83 | CGATCTAA | 0.0385
84 | AACCCAGT | -0.158
85 | AGAAGTTC | -0.0839
86 | CTGCTTCC | -0.269
87 | CTATACGC | 0.173
88 | AATGCTCC | -0.241
89 | AGCCTGGG | -0.168
90 | CAACCTAG | -0.163
91 | CAGTCCCA | -0.23
92 | ATAATGGC | 0.184
93 | GTCGAAAA | 0.159
94 | ATCCGGGG | -0.265
95 | TGGCGACA | -0.0175
96 | AATTAACA | 0.216
97 | TAAAACTA | 0.164
98 | AGCTGTGA | 0.0824
99 | CTTTAGTA | -0.00187
100 | AGAATGAT | 0.157

Row | Sequence | PBM E-score
101 | AAGTACTC | -0.119
102 | CAATAGTA | 0.0317
103 | GTTCGTAA | 0.355
104 | GTTGTCCA | -0.0227
105 | AAATCCAG | -0.0699
106 | ACGCTTAT | -0.0333
107 | GACCAGGC | -0.202
108 | AGAGACAG | -0.258
109 | AGATTAGC | -0.0226
110 | GTGCAGAA | 0.188
111 | TAATTCCA | 0.219
112 | ATTTGGAA | -0.001
113 | CTAGGATC | -0.255
114 | ATAGGGTA | -0.118
115 | GAGTCCTA | -0.133
116 | GCAGAGCA | -0.179
117 | AAGGTCAA | -0.0521
118 | AACTCCAC | 0.00529
119 | CTTGCGAC | -0.193
120 | CGGCCCCA | -0.335
121 | ATCGAGCC | -0.182
122 | GCTTAACA | -0.0101
123 | TGAAGGCA | -0.116
124 | CATGCATA | 0.201
125 | TCGGTGCA | -0.219

Row | Sequence | PBM E-score
126 | TAGTGGAA | -0.149
127 | CTCACATA | 0.0747
128 | CGGCGATC | -0.124
129 | CCGGCAGA | -0.396
130 | GCGCCGGA | -0.0799
131 | ACTTTCTC | -0.153
132 | GTCGATCA | -0.0654
133 | GCCCGGTA | -0.333
134 | GGTTTCAA | -0.0777
135 | ATTCGTTA | 0.21
136 | AATCTTGA | 0.126
137 | CGTAAATA | 0.352
138 | ATTTTCCG | 0.0868
139 | ATTGAGCG | -0.109
140 | AATGCATG | 0.158
141 | CGGACTGC | -0.0639
142 | CAGTTAAC | -0.0202
143 | GCTGCCCC | -0.222
144 | ACCCATAA | -0.118
145 | AGGCATGG | -0.112
146 | AGATCGAG | -0.117
147 | GCCCCCTA | -0.278
148 | AGTGCCTG | -0.243
149 | GGAAGTCA | 0.0457
150 | AGCATGCC | -0.196

Row | Sequence | PBM E-score
151 | CGCCCGCA | -0.0611
152 | CACGCTAA | -0.072
153 | AATGCTTA | -0.1
154 | GGGGTCAA | -0.0777
155 | AAACGAGA | -0.0276
156 | CCCTGTTC | -0.285
157 | TGGCAGAA | 0.037
158 | GATCCCCA | -0.0413
159 | CGAATCTA | 0.0743
160 | CAACTGGG | -0.215
161 | GAGCACAC | -0.00506
162 | ATCTCGCG | 0.17
163 | GTTGCATA | 0.148
164 | CTTCCAAG | -0.165
165 | AAGCCATG | -0.0873
166 | ATGTTAAC | 0.137
167 | AGTCTCAG | -0.264
168 | ATCTACTA | 0.148
169 | ACTGTTTA | 0.185
170 | AGCAGCTA | 0.0401
171 | GACACCGA | 0.00291
172 | AACATAAG | 0.155
